# Results as given in the supplement of paper PMC3334620.
# Over roughly 33,000 sequences, “E-score (-0.5 to 0.5)” has its median near -0.011; the highest 2% begin near 0.28. The list shows a part of the results.
# Molecular target: T1, Gcr1 (UniProt P07261)
# T1 sequence: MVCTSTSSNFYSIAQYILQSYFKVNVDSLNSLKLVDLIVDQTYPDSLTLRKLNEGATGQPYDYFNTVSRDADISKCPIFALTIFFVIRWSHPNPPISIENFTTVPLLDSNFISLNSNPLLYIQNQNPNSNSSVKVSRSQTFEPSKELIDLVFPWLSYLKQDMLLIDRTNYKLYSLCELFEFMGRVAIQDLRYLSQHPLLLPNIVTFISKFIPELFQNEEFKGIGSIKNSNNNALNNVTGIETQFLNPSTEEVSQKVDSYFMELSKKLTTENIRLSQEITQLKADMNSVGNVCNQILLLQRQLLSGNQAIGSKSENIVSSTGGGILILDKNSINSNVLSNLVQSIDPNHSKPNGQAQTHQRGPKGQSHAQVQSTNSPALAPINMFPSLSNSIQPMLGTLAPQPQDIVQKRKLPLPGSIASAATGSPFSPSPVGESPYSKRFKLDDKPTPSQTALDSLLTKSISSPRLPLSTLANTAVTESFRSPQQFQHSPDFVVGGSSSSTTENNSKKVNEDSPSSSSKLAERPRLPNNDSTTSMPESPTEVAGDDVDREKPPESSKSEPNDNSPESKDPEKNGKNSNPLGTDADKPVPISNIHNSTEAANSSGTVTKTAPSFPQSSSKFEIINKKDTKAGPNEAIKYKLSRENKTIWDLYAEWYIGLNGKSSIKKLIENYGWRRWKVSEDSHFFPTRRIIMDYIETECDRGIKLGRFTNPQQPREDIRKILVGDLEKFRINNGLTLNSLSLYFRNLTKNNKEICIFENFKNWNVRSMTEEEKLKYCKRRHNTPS
# Experiment: PBM E-score (8-mer binding enrichment) (E-score (-0.5 to 0.5)); higher = stronger / more preferred TF binding; most listed sequences are background and not binding sites
# Settings: protein concentration: 100 nM; construct: GST-full length
# Method in brief: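 GST-tagged yeast TFs (full-length or DNA-binding domain) were made by PURExpress in vitro transcription/translation and applied at about 100-200 nM to universal all-10-mer Agilent arrays. The arrays were made double-stranded by primer extension, on fresh or once-stripped slides. Bound protein was detected with fluorescent anti-GST, and scans were normalised with masliner. Each ungapped eight-base word, pooled with its reverse complement, received an E-score (modified Wilcoxon-Mann-Whitney statistic) from the Universal PBM Analysis Suite.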
row,Sequence,PBM E-score
1,GAAGTAAC,-0.144
2,TGCCATAA,-0.09
3,CGGGGAAA,0.0901
4,CACTTACC,-0.064
5,AGTAGAAA,0.162
6,CCTGTGCG,-0.0938
7,CAACTTAA,-0.0113
8,CGATGTTA,-0.049
9,AGGTTTAT,-0.00858
10,GTGTGATA,-0.0525
11,GTGCAACA,-0.163
12,TACCCTAA,0.0283
13,CAATGTGC,0.00539
14,GATATGCA,-0.137
15,ACGGATCC,0.117
16,ATGATCGA,-0.102
17,AAGATGGC,-0.168
18,AATTCACC,-0.031
19,GATATCCC,-0.00544
20,GCGACATA,0.087
21,AGGGTACC,0.0354
22,AAGGAGCG,-0.201
23,GTCTGGAA,0.189
24,GACGTTAC,-0.0517
25,ATCCCTTA,-0.00764

row,Sequence,PBM E-score
1,TCTTCAAA,0.154
2,ATCTGTCG,-0.0584
3,CCATGCTA,-0.0974
4,CATGTTGA,0.0164
5,GCCGTCTA,-0.0242
6,AGATTGAT,-0.0159
7,GCATAGTA,0.0271
8,AAGACGTG,0.0318
9,CTCAGTTC,-0.182
10,AGGCACGG,-0.0862
11,GCCTACCA,-0.0627
12,ATAATGAG,0.0333
13,CACACCTG,-0.085
14,AAACTGAT,0.0967
15,AACCAGTA,0.315
16,TACACACA,-0.14
17,CTAACAAA,-0.0621
18,GTGCATGA,-0.194
19,CTCATCGC,-0.185
20,CGTCGATC,-0.0914
21,ACCATAGA,-0.0141
22,GCTAACAA,-0.138
23,GGCGTGCA,-0.161
24,GTAACAAC,0.179
25,AAGTCTTA,-0.144

row,Sequence,PBM E-score
1,AGATTACA,-0.271
2,GCTAAACC,-0.164
3,GAATCGTA,-0.0293
4,AGCTTTAA,0.0602
5,GAGAGCAA,-0.0939
6,GGTCAACC,-0.151
7,CCTCAGCC,-0.246
8,AGTTATAC,-0.0347
9,ACCGAGAC,-0.132
10,CTCGTCAA,-0.0346
11,CTGTCCCA,-0.0382
12,GAGCCGCC,0.248
13,GTTCGCGA,0.19
14,ACTAAGAC,0.052
15,CCCTCCGG,-0.0226
16,GGCCGAAC,-0.111
17,GCTTCAAC,0.093
18,CGTCGAAA,0.115
19,GCATGTCA,-0.249
20,ATACGCCA,-0.00959
21,CGGCGGGA,-0.152
22,AAGGAATA,-0.159
23,CACGCCCA,-0.107
24,AGAGGAGG,0.0786
25,CCCACATC,0.0685

row,Sequence,PBM E-score
1,CAACCGTG,-0.245
2,ACGAGTAC,-0.0478
3,GAGGTGAA,0.00039
4,TCGTATAA,0.286
5,CCAAAGAG,0.0586
6,AATTTTGG,0.287
7,AAATAACC,-0.075
8,GGCAAAAA,0.077
9,AAAACGCG,0.117
10,AGTCGTCA,-0.00654
11,CTAGCTTC,0.316
12,AACATTTG,0.126
13,ACATCTCT,-0.157
14,GATTCGCC,0.0655
15,CAGTTTCC,0.159
16,GATCGTAC,0.00975
17,AAGGTCCG,-0.154
18,CGCCAGTA,0.155
19,CCCTACAA,0.0817
20,GGAGGGTA,-0.251
21,ACCACCTC,-0.191
22,TGGCCAAA,-0.157
23,ACGCCACA,0.104
24,CTTCCCTC,-0.0496
25,ACCTCCCT,-0.242

row,Sequence,PBM E-score
1,CTGTAAAC,0.138
2,CGTATACC,0.0469
3,TAGAGGGA,-0.0458
4,CAACCTCG,-0.0837
5,CGAATACG,0.205
6,ACCGGAGC,0.183
7,CGGCATCC,0.444
8,AAGCAGGT,0.161
9,TACCAACA,0.0118
10,TCTGTGCA,-0.143
11,TGGAGAAA,-0.0779
12,GCCTGACA,-0.173
13,CTATCTAC,-0.239
14,AGTAAGTC,-0.105
15,CCAATCTA,0.207
16,AATCCCGC,0.185
17,CAAAGCGC,-0.119
18,ACACGGCG,0.0542
19,CGGACCAG,-0.117
20,ACCCGGAT,-0.073
21,AGGCTCAA,-0.283
22,ACGCGTAA,-0.0986
23,CGCAATTC,0.0283
24,ATGAATGG,0.0657
25,GCAACAGA,-0.0373

row,Sequence,PBM E-score
1,AACCTCAT,-0.222
2,ATCCTTAG,0.0994
3,ATCTCACG,-0.196
4,AGATAGAT,0.0108
5,GGCTATAA,0.139
6,ACCACAGG,0.0775
7,ATCCCGCC,-0.0496
8,GGCACGCC,-0.136
9,CATTTTCC,0.0794
10,CATCCGGG,0.143
11,TTAAACAA,-0.0415
12,CAAAAGGC,-0.0644
13,AATGAACA,-0.0781
14,GTATACGA,0.196
15,ACGACCCA,-0.03
16,GCATGCTA,-0.227
17,CGGCCACA,0.0838
18,CGGGCCTA,-0.19
19,GACGAGCC,-0.0889
20,GAACTTTA,0.0441
21,CATTGATC,-0.0206
22,ATGTATAC,-0.208
23,ACTACATA,0.0743
24,CTGATGCC,-0.0173
25,CTAATCAC,0.156

row,Sequence,PBM E-score
1,CTTTCTCC,-0.0695
2,CCAAAGCC,-0.0694
3,CCGTCTAG,0.0957
4,ACACAGTC,-0.23
5,GTCTCTAA,0.0027
6,AACCGCAA,0.168
7,CTCATGGC,-0.11
8,TAGCTATA,-0.0112
9,GTTCCCGA,0.235
10,AAGGACTG,-0.228
11,GCCCTAAC,0.0843
12,ATCAAGAG,-0.088
13,ATTTGTCC,-0.109
14,GCTGGCAC,0.0435
15,CAGCACCC,0.277
16,ATGGAATC,0.29
17,ACGTGCGA,-0.00287
18,CTCACCAA,0.123
19,ATTGGACC,0.0391
20,AATTCTAC,-0.00431
21,ACGATAAG,-0.0683
22,GCGAATAA,-0.0656
